Measured values taken from the RNAGym collection of RNA variant scans (doi:10.1073/pnas.2313332121).
Variants at the floor of the assay are shown more often than the library holds them.

B1: TPR 5TU (parent)
chain: GGAUCUUCUCGAUCUAACAAAAAAGACAAAUCUGCCACAAAGCUUGAGAGCAUCUUCGGAUGCAGAGGCGGCAGCCUUCGGUGGCGCGAUAGCGCCAACGUUCUCAACUAUGACACGCAAAACGCGUGCUCCGUUGAAUGGAGUUUAUCAUG

Variants of: B1
Assay: polymerase ribozyme fitness, log enrichment relative to wild type (log ratio); higher = more active; in vitro selection for triplet polymerase activity
Procedure, shortened: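 Streptavidin-bead capture of gel-excised extended constructs, followed by RT-PCR, closed a single triplicate in vitro selection round. That round began by annealing PCR-built, transcribed mutant libraries of each subunit of a heterodimeric triplet polymerase ribozyme with a biotinylated primer, the partner subunit and triplets, then incubating them frozen at −7 °C. After Illumina sequencing of inputs and outputs, genotypes needed ≥10 input reads and ≥1 read per output. Fitness is the base-2 logarithm of genotype enrichment over wild-type enrichment, using inverse-variance-weighted replicate averages.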

Polymerase ribozyme fitness (log ratio), -1.95:
C5G U56A G94C A120G

Polymerase ribozyme fitness (log ratio), -1.14:
C5G U13A

Polymerase ribozyme fitness (log ratio), -3.82:
C5G C32U G84U

Polymerase ribozyme fitness (log ratio), -1.02:
C5U A37U C69U C95U

Polymerase ribozyme fitness (log ratio), -2.31:
C5G C93U

Polymerase ribozyme fitness (log ratio), -3.79:
C5G U53G C54A C96U U135A

Polymerase ribozyme fitness (log ratio), -0.562:
C5G A147C

Polymerase ribozyme fitness (log ratio), 0.0205:
C5G C85A C116A

Polymerase ribozyme fitness (log ratio), -0.989:
C5G C99A

Polymerase ribozyme fitness (log ratio), -2.86:
C5G U55G C85U C99A

Polymerase ribozyme fitness (log ratio), 0.0107:
C5G G136A

Polymerase ribozyme fitness (log ratio), -3.69:
C5G C132U U146G

Polymerase ribozyme fitness (log ratio), -3.17:
C5G C14G A49G

Polymerase ribozyme fitness (log ratio), -4:
C5G U9G G86A

Polymerase ribozyme fitness (log ratio), -3.16:
C5U A47C G59A C87U C93U

Polymerase ribozyme fitness (log ratio), -2.35:
C5G C10U C76A C87U G92A

Polymerase ribozyme fitness (log ratio), -1.73:
C5U A16C C51U

Polymerase ribozyme fitness (log ratio), -3.03:
C5G U7A C93U A106C

Polymerase ribozyme fitness (log ratio), -2.51:
C5G C93G

Polymerase ribozyme fitness (log ratio), ≤ -4.2:
C5G A52C G84A G100A A147G
C5G A60C U61A C85A G86U U148A
C5G A60U A119U G126U G141U
C5G A66G G71A C85U C87G C125G
C5G A73U G84U C85A A150C
C5G A89G C96U U135G
C5G A110C
C5G C8A A24C C85G C95A A98U C108U
C5G C8A C27U A49C U56A G94A C95G U109G
C5G C8U A21U G50U C75A G94U C118A
C5G C8U A24G G34A A41G G70C A107G G124U U151G
C5G C8U A28C U33A U44A C85U U90A U139C
C5G C10A A19C C57U C87U C103G G141C
C5G C10A G11A A37U G70A C123G U134C
C5G C10A U13G A49C C85G A107G
C5G C10G A12U A21U A37G A47G C54A G92C A107C C114A U139C G140A U146G
C5G C10G A28U U33G C79U
C5G C10G C18U A29U C57U C93A U146G
C5G C10G C54U C57U G58A A91C
C5G C10G C54U C85A C93U C96G A98G
C5G C10U A49G U56A G74C C85U U90G C93U G100U A115C G141A
C5G C14G A47C C57U G80A C132A
C5G C14G C27U U53A A66G A91U
C5G C14G U15A G46C A91U C95G U145C
C5G C14U G68U G84A U151G
C5G C18A A20C C93G U101G C131G
C5G C18A A23G C54G G67A C93G C99G
C5G C18G U55A U61G C96A A119U U134C
C5G C27G G68A G86C A98C G133U G141U
C5G C27U C38G G81A U104C A115C
C5G C32A C57G U82G G84A C87U U127G
C5G C32G C72U A73G A91G A119U G141A
C5G C32U G50C C96A C99U U127A
C5G C35G A41G G50C A73U C79G A91U U104G
C5G C35G C85A
C5G C35G U55G C95G C105U A137U
C5G C35U C75U G86C A113U A142G
C5G C36A G50C G68U A97U
C5G C38U U45A C103A G128A
C5G C43U G81A A91U
C5G C51A C87A C99G A115G G136C A147C
C5G C54A C93A A97U
C5G C54A G65C A66G C85U
C5G C54U A64C C96G A110G G112C G133U C149A
C5G C57A A60C U90G C96A G126A G141C
C5G C57G A66C C85U C118U A138U
C5G C57U G67U U78G U127G
C5G C87A G128A
C5G C87A G133U U145C
C5G C87G
C5G C93G C95U C103G G143C U144G
C5G C103A C114U
C5G G11A A26G A47C C79G
C5G G11A C54U U61G U82A C96A G126U U130G U135G
C5G G11U G34U C57G C76G
C5G G25C A29C U53C G70C C96U G133A
C5G G25C A39U U53A
C5G G25C A40C G83A A91C A122G
C5G G25C C54A C75G G83U
C5G G25U G48C G59C C93A C114U G117U
C5G G25U U55A C93A A98G U145C A147C
C5G G34A C38U C43U G83A
C5G G42U U53A C57G U61G G92U G126U A137G
C5G G46A G58C A60U G92A C93U A120U A121U A138U
C5G G46A G88A C95G U102G U135C A147C
C5G G46C G59A A120G G140C
C5G G50A A52G C76A C114G
C5G G50A G58C G84C C108U
C5G G50A U61G G62A A66C C96A U146A
C5G G50C C95U U139A
C5G G50U A107C A115G G124A G136A
C5G G50U C75U C79U C85U A91G
C5G G50U G74A C76G G83C C95G C96U A142C
C5G G58A A60G G88A C108U G126U
C5G G62A G84A U90C G140C U151G
C5G G70U C87A A119U
C5G G71A C76G C96U C103G C132U A137C
C5G G74A U77G
C5G G80U G83A U90G C96A C105G
C5G G86A A110G U145A C149G
C5G U6A C32G U77A C87G C114U
C5G U6C A26U A66G G86U C87A G88C A137C G141A U144A
C5G U6C C8G G80A G92U
C5G U6C G25A U53A G67C C108U U127G
C5G U6G G46C G50C U56A C57A G86A A98U U139G G141A
C5G U6G G59A G68A U77A G88C C95G
C5G U7G A12C A22U U90C U144A
C5G U9A A37C A52C U56A G84U U135A A150G
C5G U9A A52C A73G C87G A110U
C5G U9A C93A U104A C118G C125U U135G G141C G152A
C5G U9C C14A U61A C85A C96G A110G
C5G U13A A29G C51U G94C C114G G140C G141C U144A
C5G U13A G50U A73U G84A U109G
C5G U15G A20G C76G A91C C99G U148G
C5G U31A C54U G67C A110U A121G
C5G U31C C85G U102G A137U
C5G U33G C54A C93G
C5G U33G C79A G84A G88A C108A C116A G143U
C5G U44A G50A G71A C87G C108G A113C G124A
C5G U44G C57A U148A
C5G U53A G94A C125A U139C A142C
C5G U55A G68C G86C U90A
C5G U77A G94U G140C G152A
C5G U78G
C5G U111G
C5G U144C A150C
C5U A12C A26C G42U A52G U61G C85U U104G
C5U A12C G34U A64U G92U C99G
C5U A12U A17C G50U G80C C93A C99A C125A
C5U A16U A17U G84A C108A
C5U A16U A26C C85G A122U
C5U A16U C87A A106C
C5U A17C A26G G42U G84A U109C
C5U A17C U82A G86U G94U U148A
C5U A17G A30U G86U U148G
C5U A17G A49G U53G C85A A122C G141C
C5U A17G G25C C43G C57U A60G C87U G88A C118G
C5U A17U C51U U56A C69G U148G
C5U A19G U77A C95U
C5U A19U C38U A41U A49U A52U G80A G84U C93A A98C G141U C149G
C5U A20C C43G C76G C108G C114U A120U U146G
C5U A20U C93A A98U A121U C125G A137U C149U
C5U A21G A24C A30U G84U
C5U A21U A40U C57U C76A G83U C116A
C5U A22C C79G G86C C99U
C5U A22G G80C G92A C103G C118G G136C A137U G143C A150U
C5U A22U C57U C87U C93G C132A G140C
C5U A22U U45A G65C C93U
C5U A23G C32A C57G G59A C87G C95A U134C
C5U A23G C32A C57G G59A C87G C95A U146A
C5U A23U C43U U55A C87A C99U
C5U A24G A49G G58A A60G C93A C125A U144A
C5U A24G G94A C123U G140U
C5U A26G U53A C72U G74C G86U C118U C123A A150U
C5U A28U C54G G81A G141C
C5U A28U C96U G143C
C5U A28U G48A G70C C85U U139C
C5U A39G C87G G94A U148G
C5U A49C G81U G94A A115G
C5U A49C U78G A97G G133A U135A U146C
C5U A60C C63A G67C A106G U130A A142U
C5U A60C G62U A91U C103G
C5U A64C G84A A122G G124U U144G U151A

Polymerase ribozyme fitness (log ratio), -1.3:
C5U A21G G59C C93G

Polymerase ribozyme fitness (log ratio), -3.83:
C5G G34A U134A

Polymerase ribozyme fitness (log ratio), -3.09:
C5G A52C G58A C93A C118U

Polymerase ribozyme fitness (log ratio), -3.4:
C5G U56A G84U U144A

Polymerase ribozyme fitness (log ratio), -0.763:
C5G C96U
